Only a part is listed here, and it is no random draw. The list includes weakly bound sequences.
What was measured:
Assay in all cases: protein-binding microarray (PBM)
Settings in all cases: PBM: ~300 nM protein, 6 mM HEPES pH 7.8, 80 mM KCl, 0.5 mM EDTA, 0.5 mM EGTA, 6% glycerol, 35 ng/ul poly-dIdC, 1% milk, 1 h, room temperature; Ap Aiptasia and Nv Nematostella (sea anemones) / Co Capsaspora / Aq Amphimedon (sponge) / Dm Drosophila / Hu human; RHD is the Rel homology domain; high values mean tight binding; most listed sequences are background and not binding sites; double strand, one strand shown
GST-Ap-NF-kB RHD = molecular target: T1, GST-Ap-NF-kB RHD (UniProt A0A913YAJ5)
T1 sequence: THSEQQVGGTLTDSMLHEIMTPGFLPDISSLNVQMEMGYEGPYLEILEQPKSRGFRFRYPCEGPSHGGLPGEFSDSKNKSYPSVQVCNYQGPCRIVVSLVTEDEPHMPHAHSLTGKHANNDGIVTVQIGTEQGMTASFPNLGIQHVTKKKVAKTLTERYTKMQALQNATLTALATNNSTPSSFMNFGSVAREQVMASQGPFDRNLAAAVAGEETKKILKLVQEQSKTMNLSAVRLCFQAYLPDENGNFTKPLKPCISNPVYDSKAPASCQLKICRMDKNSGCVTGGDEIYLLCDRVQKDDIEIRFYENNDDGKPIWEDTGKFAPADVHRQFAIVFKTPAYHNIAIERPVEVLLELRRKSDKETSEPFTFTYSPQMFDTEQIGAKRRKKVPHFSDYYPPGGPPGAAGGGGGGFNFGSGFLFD

[1] = molecular target: T2, GST-Nv-NF-kB (Cys allele) (UniProt E5G601)
T2 sequence: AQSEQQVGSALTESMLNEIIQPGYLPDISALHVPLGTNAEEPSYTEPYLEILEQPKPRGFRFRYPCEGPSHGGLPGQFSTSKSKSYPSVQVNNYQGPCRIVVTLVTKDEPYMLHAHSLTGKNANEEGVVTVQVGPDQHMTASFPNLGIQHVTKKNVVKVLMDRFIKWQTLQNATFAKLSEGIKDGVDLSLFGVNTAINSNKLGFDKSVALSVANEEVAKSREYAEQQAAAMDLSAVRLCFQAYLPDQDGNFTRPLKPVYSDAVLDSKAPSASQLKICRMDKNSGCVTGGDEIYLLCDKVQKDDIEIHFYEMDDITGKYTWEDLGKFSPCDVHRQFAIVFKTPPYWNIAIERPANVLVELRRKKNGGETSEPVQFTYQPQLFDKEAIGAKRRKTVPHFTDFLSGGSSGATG

GST-Dm-Relish = molecular target: T3, GST-Dm-Relish (UniProt Q94527)
T3 sequence: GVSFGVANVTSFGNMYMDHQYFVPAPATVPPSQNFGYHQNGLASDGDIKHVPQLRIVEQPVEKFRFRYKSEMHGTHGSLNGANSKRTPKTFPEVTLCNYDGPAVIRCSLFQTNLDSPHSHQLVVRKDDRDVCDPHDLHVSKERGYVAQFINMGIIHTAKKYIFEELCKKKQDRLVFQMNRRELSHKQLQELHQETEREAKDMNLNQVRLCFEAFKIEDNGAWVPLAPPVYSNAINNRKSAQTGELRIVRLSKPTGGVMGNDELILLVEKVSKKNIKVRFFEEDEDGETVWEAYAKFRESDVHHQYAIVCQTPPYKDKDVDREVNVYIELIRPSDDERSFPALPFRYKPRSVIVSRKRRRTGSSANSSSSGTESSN

GST-Aq-NF-kB = molecular target: T4, GST-Aq-NF-kB (UniProt A9Y5G7)
T4 sequence: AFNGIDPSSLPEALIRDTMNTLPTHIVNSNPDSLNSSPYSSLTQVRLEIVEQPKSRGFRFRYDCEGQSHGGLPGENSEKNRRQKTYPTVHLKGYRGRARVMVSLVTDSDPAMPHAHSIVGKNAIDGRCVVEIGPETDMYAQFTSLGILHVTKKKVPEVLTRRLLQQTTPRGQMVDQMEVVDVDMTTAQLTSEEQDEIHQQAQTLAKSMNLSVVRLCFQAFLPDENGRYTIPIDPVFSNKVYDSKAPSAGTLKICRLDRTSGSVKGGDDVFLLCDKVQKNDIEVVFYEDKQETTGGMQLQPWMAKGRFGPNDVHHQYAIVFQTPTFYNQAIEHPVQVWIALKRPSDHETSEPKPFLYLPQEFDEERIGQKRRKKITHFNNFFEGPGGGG

GST-Co-NF-kB = molecular target: T5, GST-Co-NF-kB (UniProt F1ARL5)
T5 sequence: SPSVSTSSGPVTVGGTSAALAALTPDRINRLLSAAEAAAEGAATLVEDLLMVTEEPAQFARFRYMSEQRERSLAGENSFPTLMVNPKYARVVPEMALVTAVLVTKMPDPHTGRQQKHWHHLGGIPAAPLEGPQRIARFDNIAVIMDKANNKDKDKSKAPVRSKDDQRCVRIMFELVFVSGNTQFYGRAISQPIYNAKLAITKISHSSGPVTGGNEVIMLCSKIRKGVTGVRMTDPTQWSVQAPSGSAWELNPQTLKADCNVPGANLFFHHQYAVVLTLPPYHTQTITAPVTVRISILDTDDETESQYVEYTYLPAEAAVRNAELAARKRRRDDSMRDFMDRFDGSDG

Sequence | binding signal (GST-Ap-NF-kB RHD) | binding signal [1] | binding signal (GST-Dm-Relish) | binding signal (GST-Aq-NF-kB) | binding signal (GST-Co-NF-kB)
CCGATTAACATCAGGAAGGGCGGTGATGTTAATCGGGTCTTGATTCGCTTGACGCTGCTG | 1.05 z-score | 0.22 z-score | 0.62 z-score | 0.641 z-score | –
CCGATTAACATCAAAAAACCCCCTGATGTTAATCGGGTCTTGATTCGCTTGACGCTGCTG | 12.1 z-score | 11.4 z-score | 11.4 z-score | 9.82 z-score | –
CCGATTAACATCAGGTAAATACCTGATGTTAATCGGGTCTTGATTCGCTTGACGCTGCTG | 0.597 z-score | – | 4.77 z-score | 4.2 z-score | -0.675 z-score
CCGATTAACATCAAGGAATTTCCTGATGTTAATCGGGTCTTGATTCGCTTGACGCTGCTG | 0.638 z-score | – | 2.04 z-score | 4.35 z-score | 0.535 z-score
CCGATTAACATCAGGGACTCCCCTGATGTTAATCGGGTCTTGATTCGCTTGACGCTGCTG | 11.3 z-score | – | 10.3 z-score | 9.57 z-score | 4.68 z-score
CCGATTAACATCAAGGGAATGCCTGATGTTAATCGGGTCTTGATTCGCTTGACGCTGCTG | 2.72 z-score | – | – | 4.2 z-score | 1.06 z-score
CCGATTAACATCAAGAAATTACCTGATGTTAATCGGGTCTTGATTCGCTTGACGCTGCTG | 1.26 z-score | – | – | 2.27 z-score | 0.765 z-score
CCGATTAACATCAAATTTCCCGGTGATGTTAATCGGGTCTTGATTCGCTTGACGCTGCTG | 4.14 z-score | – | – | 4.88 z-score | 6.34 z-score
CCGATTAACATCAAGGGGGTTCCTGATGTTAATCGGGTCTTGATTCGCTTGACGCTGCTG | 9.16 z-score | – | 10.4 z-score | 7.2 z-score | 1.68 z-score
CCGATTAACATCAAAATCCCGGGTGATGTTAATCGGGTCTTGATTCGCTTGACGCTGCTG | 3.32 z-score | – | 6.58 z-score | 3.23 z-score | 1.42 z-score
CCGATTAACATCACAATTTCCCCTGATGTTAATCGGGTCTTGATTCGCTTGACGCTGCTG | 8.29 z-score | – | 5.96 z-score | 6.69 z-score | 8.61 z-score

— article PMC5700166
